The text below walks through data of the supplement of paper PMC5499739.

In all, about 16,000 sequences were measured (“Z-score”: median about -0.37, highest 2% from about 3.2 on). The list shows a part of the results.

The subject of the assay is RBM10 RRM1-ZnF (GST-tagged construct). Description: RNAcompete 7-mer binding Z-score; higher = stronger binding preference. In a few lines:
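A designed pool of 241 399 RNAs, each up to 41 nt and transcribed from microarray-derived DNA templates, was used at 1.5 nmol with 20 pmol of GST-tagged RBM10 constructs. The mixture, in 1 ml Hepes pH 7.8 buffer with KCl, NaCl, glycerol, DTT, BSA and glutathione Sepharose beads, was held 30 min at 4°C and then washed four times for 2 min at 4°C. Bound RNA was read out by microarray hybridisation, and enrichment of each heptamer motif was scored as a one-sided Z-score over the probes carrying it.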
Regarding CAGAAUC, the “RNAcompete 7-mer binding Z-score” value is -0.461.
With CAUCUUA the figure was -0.75; with CGCGAUA, -0.295.
With CAUCCCU the figure was -0.737; with ACGCCAC, -0.454; with GGAUAUA, 1.53.
The figure for GCCGCAA is -0.464.
With CAACAUA, the “RNAcompete 7-mer binding Z-score” value was -0.461.
As for UGUGUUC, the “RNAcompete 7-mer binding Z-score” value was -0.597.
With UCGGCAU the figure was -0.402.
Regarding ACCACGA, the “RNAcompete 7-mer binding Z-score” value is -0.428.
With AGGCUUG the figure was 0.00404; with AUCCAUG, -0.613.
With CCAAUUC the figure was -0.798; with UAUGACG, 0.0398.
With UCUUUUG the figure was -0.662; with CGUACUC, -0.591.
With CAAAUCU, the “RNAcompete 7-mer binding Z-score” value is -0.824.
With UCCUUGU the figure was -0.75; with GCGGUAU, 0.787.
With UACUGCU the figure was -0.558; with GUGACUU, -0.305.
With CGAGGCC the figure was -0.184; with CUUAAAA, -0.724.
Take UCUUUCC: the “RNAcompete 7-mer binding Z-score” value was -0.883.
The figure for GGCAUUA is 0.0398; for GCGAGUA it is 0.394; for UCGGUAU it is -0.256.
With UGGAAUA the figure was 1.46; with CAAGCCU, -0.854.
The figure for AGGCUUU is -0.535; for UUGACGG it is 0.42.
In the case of GAUUAAG, the “RNAcompete 7-mer binding Z-score” value was 0.68.
The figure for UUCGAAA is -0.688.
The figure for CUAUGCU is -0.711; for ACAUUCA it is -0.727; for ACCGUAC it is -0.655.
The figure for AACUUGA is -0.607.
AUUGUAU: the “RNAcompete 7-mer binding Z-score” value was -0.483.
The figure for AGCUCUG is -0.691; for AGGUUCU it is -0.337.
With UGAAGGU the figure was 2.57; with UCUACUA, -0.737.
With UGGGCCA the figure was 0.618; with ACGGAGA, 1.21; with CCGUGCU, -0.678.
With AUAGGCU, the “RNAcompete 7-mer binding Z-score” value is -0.00246.
With GUGCCAA the figure was -0.197; with GGUGUAU, 1.41; with AACUCCA, -0.526.
With CUCUUCA the figure was -0.75; with UAAGUGC, -0.23; with UAAAUGU, -0.311.
With CUUUAUG the figure was -0.763; with UUGCGAA, -0.272.
As to UAGAAUA, the “RNAcompete 7-mer binding Z-score” value was -0.168.
As for GUCCAGU, the “RNAcompete 7-mer binding Z-score” value is -0.311.
The figure for GCACCCU is -0.496; for UCUUCUG it is -0.805.
With AACCUUC the figure was -0.993; with CUUUCAG, -0.72.
The figure for ACGAGCC is -0.639; for CACCAUG it is -0.532.
For CGGGACG, the “RNAcompete 7-mer binding Z-score” value worked out at 1.57.
As for UUUUUCU, the “RNAcompete 7-mer binding Z-score” value was -0.591.
Regarding GGUUAAG, the “RNAcompete 7-mer binding Z-score” value worked out at 2.1.
With GACGGAC the figure was 0.511; with CGCGACG, -0.347.
With CCAAGGA the figure was 0.319; with UGACAUU, -0.604.
The figure for CCCCCGA is -0.116; for GCCAGUA it is -0.288.
For CGCCAGA, the “RNAcompete 7-mer binding Z-score” value is -0.552.
The figure for ACCAAGG is 0.352; for AAGGCUU it is 0.03; for CAUUGAC it is -0.318.
The figure for UCGAUAA is -0.633.
With CAUUCGA the figure was -0.795.
In the case of UAGCGAU, the “RNAcompete 7-mer binding Z-score” value was -0.194.
For AAAAUGA, the “RNAcompete 7-mer binding Z-score” value was -0.0674.
With GAGGGAA the figure was 3.42; with CGCGACC, -0.519.
Turning to GCGCCUC, the “RNAcompete 7-mer binding Z-score” value is -0.457.
Take CUCUCGU: the “RNAcompete 7-mer binding Z-score” value is -0.649.
Consider CAGUUGG, for which the “RNAcompete 7-mer binding Z-score” value was determined as 0.413.
The figure for UACCACG is -0.331.
On to UUGGAAG, for which the “RNAcompete 7-mer binding Z-score” value was determined as 1.7.
With GCCCAAU the figure was -0.604; with AUCGAGU, -0.168.
The figure for GUGCGAG is 1.51; for AGGAGAG it is 2.07.
The figure for AGAUGGU is 1.71; for CCCAUAU it is -0.798.
CCUGCCC: the “RNAcompete 7-mer binding Z-score” value is -0.305.
The figure for GACAGAG is 0.816; for AACAUAU it is -0.516.
With ACUAUCU the figure was -0.759; with UGUAGUU, 0.0365; with AUAGCUA, -0.357.
With AUGACGU the figure was -0.36.
